Assay results published in the supplement of paper PMC6828730.
Some of the results follow. Most values come without repeats; read them as rough.

Experiments:
[1] = system: hiPSC-derived cardiomyocytes; assay: time to death of most cells in well after compound addition (days); higher = less cardiotoxic; settings: screen: 1; 10 µM
[2] = system: hiPSC-derived cardiomyocytes; assay: time to death of most cells in well after compound addition (days); higher = less cardiotoxic; extreme values may be limits of the assay; settings: 10 µM

Row | Structure (SMILES) | time to death of most cells in well [1] | time to death of most cells in well ([2]; screen: 2) | time to death of most cells in well ([2]; screen: 3) | time to death of most cells in well ([2]; screen: 4)
1 | CNC(=O)c1ccccc1Nc1nc(Nc2ccc(N3CCOCC3)cc2OC)ncc1Cl | > 7 | > 7 | > 7 | > 7
2 | CC(C)(C)c1nc(-c2cccc(NS(=O)(=O)c3c(F)cccc3F)c2F)c(-c2ccnc(N)n2)s1 | > 7 | > 7 | > 7 | > 7
3 | CCn1c(-c2nonc2N)nc2c(C#CC(C)(C)O)ncc(OC[C@H]3CCCNC3)c21 | > 7 | 2.5 | > 7 | > 7
4 | O=C1NC(=O)/C(=C/c2ccc3c(c2)OC(F)(F)O3)S1 | > 7 | > 7 | > 7 | > 7
5 | C[C@@H](Oc1cc(-c2cnn(C3CCNCC3)c2)cnc1N)c1c(Cl)ccc(F)c1Cl | > 7 | 3 | > 7 | > 7
6 | S=C(NCc1ccc2c(c1)OCO2)N1CCN(c2ncnc3c2oc2ccccc23)CC1 [Amuvatinib (MP-470)] | 3 | 2 | 0 | > 7
7 | COc1cc(Nc2ncc(F)c(Nc3ccc4c(n3)NC(=O)C(C)(C)O4)n2)cc(OC)c1OC | 6 | 6.5 | > 7 | > 7
8 | O=C(NC1CCNCC1)c1n[nH]cc1NC(=O)c1c(Cl)cccc1Cl | 4.5 | 3.5 | 3 | > 7
9 | NC(=O)Nc1cc(-c2cccc(F)c2)sc1C(=O)N[C@H]1CCCNC1 | 3 | 1.5 | 5 | 6
10 | CN(C)S(=O)(=O)c1ccc2c(c1)/C(=C/c1cc3c([nH]1)CCCC3)C(=O)N2 | > 7 | > 7 | > 7 | > 7
11 | CCc1cc(Nc2nccc(-c3c(-c4ccc(OC)c(C(=O)Nc5c(F)cccc5F)c4)nc4ccccn34)n2)c(OC)cc1N1CCC(N2CCN(S(C)(=O)=O)CC2)CC1 | 6.5 | > 7 | > 7 | > 7
